Results as given in the supplement of paper PMC4604168 (melanoma cell lines).
The list shows a part of the results. Repeats are few or missing, and single values can be far off.

System: WM3619
Assay: cell count relative to DMSO control; melanoma cells; higher = more viable cells
Conditions: library dose: low library concentration; 72 h
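Further: cell number obtained by counting DAPI-stained nuclei in high-throughput microscope images with image analysis software, screen run in 1,536-well plates.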

Row | Compound | cell count [%]
1 | CC(=O)c1c(C)c2cnc(Nc3ccc(N4CCNCC4)cn3)nc2n(C2CCCC2)c1=O [palbociclib] + Cn1cc(/C=C2\C(=O)Nc3cccnc32)c2ccccc21 [GW441756] (first compound 0.04 µM, partner dose 0.4 µM) | 85.5
2 | CO[C@H]1C[C@@H]2CC[C@@H](C)[C@@](O)(O2)C(=O)C(=O)N2CCCC[C@H]2C(=O)O[C@H]([C@H](C)C[C@@H]2CC[C@@H](OCCO)[C@H](OC)C2)CC(=O)[C@H](C)/C=C(\C)[C@@H](O)[C@@H](OC)C(=O)[C@H](C)C[C@H](C)/C=C/C=C/C=C/1C [everolimus] + Cn1nnc2c(C(N)=O)ncn2c1=O [temozolomide] (first compound 0.02 µM, partner dose 2 µM) | 56.5
3 | CC(=O)O[C@@]12CO[C@@H]1C[C@H](O)[C@@]1(C)C(=O)[C@H](O)C3=C(C)[C@@H](OC(=O)[C@H](O)[C@@H](NC(=O)OC(C)(C)C)c4ccccc4)C[C@@](O)([C@@H](OC(=O)c4ccccc4)[C@H]21)C3(C)C [Docetaxel] + NC(=O)Nc1cc(-c2cccc(F)c2)sc1C(=O)N[C@H]1CCCNC1 [AZD7762] (first compound 0.0001 µM, partner dose 0.02 µM) | 35.5
4 | Nc1nc(F)nc2c1ncn2[C@@H]1O[C@H](CO)[C@@H](O)[C@@H]1O [fludarabine] + C=CCn1c(=O)c2cnc(Nc3ccc(N4CCN(C)CC4)cc3)nc2n1-c1cccc(C(C)(C)O)n1 [MK1775] (first compound 0.2 µM, partner dose 0.02 µM) | 79
5 | Nc1ccn([C@@H]2O[C@H](CO)[C@@H](O)C2(F)F)c(=O)n1 [gemcitabine] + COc1ccc(COc2ccc(Cc3cnc(N)nc3N)cc2OC)cc1 [GW2580] (first compound 0.0004 µM, partner dose 1 µM) | 59.3
6 | Nc1ncn([C@H]2C[C@H](O)[C@@H](CO)O2)c(=O)n1 [decitabine] + CC(C)(C)c1cnc(CSc2cnc(NC(=O)C3CCNCC3)s2)o1 [SNS-032] (first compound 0.1 µM, partner dose 0.01 µM) | 91.4
7 | Nc1nc(F)nc2c1ncn2[C@@H]1O[C@H](CO)[C@@H](O)[C@@H]1O [fludarabine] + Nc1ncn([C@H]2C[C@H](O)[C@@H](CO)O2)c(=O)n1 [decitabine] (first compound 0.2 µM, partner dose 0.1 µM) | 90
8 | CC(=O)O[C@@]12CO[C@@H]1C[C@H](O)[C@@]1(C)C(=O)[C@H](O)C3=C(C)[C@@H](OC(=O)[C@H](O)[C@@H](NC(=O)OC(C)(C)C)c4ccccc4)C[C@@](O)([C@@H](OC(=O)c4ccccc4)[C@H]21)C3(C)C [Docetaxel] + O=C(O)C(=O)Nc1sc2c(c1C(=O)O)CCNC2 [TCS401] (first compound 0.0001 µM, partner dose 1.66667 µM) | 63
9 | Nc1ccn([C@@H]2O[C@H](CO)[C@@H](O)C2(F)F)c(=O)n1 [gemcitabine] + CCN(CC)CCCCNc1ncc2cc(-c3cc(OC)cc(OC)c3)c(NC(=O)NC(C)(C)C)nc2n1 [PD173074] (first compound 0.0004 µM, partner dose 0.1 µM) | 72.3
10 | CC(=O)c1c(C)c2cnc(Nc3ccc(N4CCNCC4)cn3)nc2n(C2CCCC2)c1=O [palbociclib] + CCN(CC)CCCCNc1ncc2cc(-c3cc(OC)cc(OC)c3)c(NC(=O)NC(C)(C)C)nc2n1 [PD173074] (first compound 0.04 µM, partner dose 0.1 µM) | 69.2
11 | Nc1ncn([C@H]2C[C@H](O)[C@@H](CO)O2)c(=O)n1 [decitabine] + COc1cc2c(Oc3ccc4[nH]c(C)cc4c3F)ncnc2cc1OCCCN1CCCC1 [cediranib] (first compound 0.1 µM, partner dose 0.4 µM) | 115
12 | CC(=O)c1c(C)c2cnc(Nc3ccc(N4CCNCC4)cn3)nc2n(C2CCCC2)c1=O [palbociclib] + Cc1nc(Nc2ncc(C(=O)Nc3c(C)cccc3Cl)s2)cc(N2CCN(CCO)CC2)n1 [dasatanib] (first compound 0.04 µM, partner dose 0.004 µM) | 57.3
